Experimental data taken from publication PMC3326058.
Results are given in words; binding and its absence hold for the method and conditions named. Binding seen in cells or lysates may run through a third protein. Some binding calls cover weakened binding; strength is not graded here. Tags and fused reporters may be left off the sequences shown. Blank lines part the entries; values can stand above or below the binder they belong to.

Tests used:
[1] = molecular target: p53 (expressed from pcDNA3-p53) (human) (UniProt P04637); assay: co-IP; Flag-tagged JMJD protein and p53 coexpressed in HEK293T; lysis in 50 mM Tris-HCl pH 7.4, 150 mM NaCl, 0.5% NP-40; anti-p53 (DO-1) immunoprecipitation, anti-Flag (M2) Western blot
[2] = molecular target: p53 (expressed from pcDNA3-p53) (human), P04637; assay: as above; conditions: remark: other sources report otherwise
[3] = molecular target: GST-p53 full-length (human), P04637; assay: pull-down; GST fusion proteins bound to glutathione agarose beads, incubated with HEK293T cell extract containing Flag-JMJD2D in 20 mM HEPES, 50 mM NaCl, 1 mM DTT, 0.01% Tween-20 for 3 h at 4°C; three washes; anti-Flag (M2) Western blot; only the target purified; conditions: remark: other sources report otherwise

binding [1]: no binding
B1: Flag-tagged HSPBAP1 (protein, UniProt Q96EW2 1-488)
chain: MAAGSEATTPVIVAAGAGGEEGEHVKPFKPEKAKEIIMSLQQPAIFCNMVFDWPARHWNAKYLSQVLHGKQIRFRMGMKSMSTVPQFETTCNYVEATLEEFLTWNCDQSSISGPFRDYDHSKFWAYADYKYFVSLFEDKTDLFQDVKWSDFGFPGRNGQESTLWIGSLGAHTPCHLDSYGCNLVFQVQGRKRWHLFPPEDTPFLYPTRIPYEESSVFSKINVVNPDLKRFPQFRKAQRHAVTLSPGQVLFVPRHWWHYVESIDPVTVSINSWIELEEDHLARVEEAITRMLVCALKTAENPQNTRAWLNPTEVEETSHAVNCCYLNAAVSAFFDRCRTSEVVEIQALRTDGEHMKKEELNVCNHMEVGQTGSQNLTTGTDKPEAASPFGPDLVPVAQRSEEPPSERGGIFGSDGKDFVDKDGEHFGKLHCAKRQQIMSNSENAIEEQIASNTTTTPQTFISTDDLLDCLVNPQVTRIVAQLLIQGRSL

binding [2]: binds
binding [3]: binds
B2: Flag-tagged JMJD2D, Q6B0I6 1-523 (enzyme)
chain: METMKSKANCAQNPNCNIMIFHPTKEEFNDFDKYIAYMESQGAHRAGLAKIIPPKEWKARETYDNISEILIATPLQQVASGRAGVFTQYHKKKKAMTVGEYRHLANSKKYQTPPHQNFEDLERKYWKNRIYNSPIYGADISGSLFDENTKQWNLGHLGTIQDLLEKECGVVIEGVNTPYLYFGMWKTTFAWHTEDMDLYSINYLHLGEPKTWYVVPPEHGQRLERLARELFPGSSRGCGAFLRHKVALISPTVLKENGIPFNRITQEAGEFMVTFPYGYHAGFNHGFNCAEAINFATPRWIDYGKMASQCSCGEARVTFSMDAFVRILQPERYDLWKRGQDRAVVDHMEPRVPASQELSTQKEVQLPRRAALGLRQLPSHWARHSPWPMAARSGTRCHTLVCSSLPRRSAVSGTATQPRAAAVHSSKKPSSTPSSTPGPSAQIIHPSNGRRGRGRPPQKLRAQELTLQTPAKRPLLAGTTCTASGPEPEPLPEDGALMDKPVPLSPGLQHPVKASGCSWAPVP
